# The list shows a part of the results.
# B1: PhoQ; a variant is named by its letters at X, in order, P23837 (parent)
# chain: MKKLLRLFFPLSLRVRFLLATAAVVLVLSLAYGMVALIGYSVSFDKTTFRLLRGESNLFYTLAKWENNKLHVELPENIDKQSPTMTLIYDENGQLLWAQRDVPWLMKMIQPDWLKSNGFHEIEADVNDTSLLLSGDHSIQQQLQEVREDDDDAEMTHSVAVNVYPATSRMPKLTIVVVDTIPVELKSSYMVWSWFIYVLSANLLLVIPLLWVAAWWSLRPIEALAKEVRELEEHNRELLNPATTRELTSLVRNLNRLLKSERERYDKYRTTLTDLTHSLKTPLXXLQXXLRSLRSEKMSVSDAEPVMLEQISRISQQIGYYLHRASMRGGTLLSRELHPVAPLLDNLTSALNKVYQRKGVNISLDISPEISFVGEQNDFVEVMGNVLDNACKYCLEFVEISARQTDEHLYIVVEDDGPGIPLSKREVIFDRGQRVDTLRPGQGVGLAVAREITEQYEGKIVAGESMLGGARMEVIFGRQHSAPKDE
# Variants of: B1
# Test: enrichment ratio after two sorts for PhoP signalling (ratio (wild type AVST 3.29)); higher = more functional
# Conditions: with PhoP (E. coli)
row,Variant,enrichment ratio
1,MKHQ,≤ 0.25
2,RPMR,≤ 0.25
3,YDAG,0.819
4,NRKC,≤ 0.25
5,HQIW,≤ 0.25
6,IDTC,≤ 0.25
7,NQMP,≤ 0.25
8,GQPN,≤ 0.25
9,PQEY,≤ 0.25
10,WSEL,≤ 0.25
11,MKCW,≤ 0.25
12,STRW,≤ 0.25
13,AIGN,6.31
14,FMKA,1.15
15,MAYS,8.34
16,RRCD,≤ 0.25
17,KQAR,≤ 0.25
18,HMAF,≤ 0.25
19,EGKT,≤ 0.25
20,INEP,≤ 0.25
21,ECGR,≤ 0.25
22,RVMN,≤ 0.25
23,SMWG,≤ 0.25
24,NCCN,≤ 0.25
25,NFIV,≤ 0.25
26,SSSH,10.4

row,Variant,enrichment ratio
1,WHIH,≤ 0.25
2,YFVL,≤ 0.25
3,GRMI,≤ 0.25
4,LRCL,≤ 0.25
5,GHGQ,≤ 0.25
6,FMCW,≤ 0.25
7,SACS,10.7
8,DLGQ,≤ 0.25
9,FQRP,≤ 0.25
10,RRVH,≤ 0.25
11,WHDF,≤ 0.25
12,YMQC,≤ 0.25
13,THFH,≤ 0.25
14,YCIH,0.311
15,EIYI,≤ 0.25
16,WRHW,≤ 0.25
17,YEGA,≤ 0.25
18,GPMH,≤ 0.25
19,AAPH,≤ 0.25
20,YCYL,≤ 0.25
21,PIWP,≤ 0.25
22,PNGG,≤ 0.25
23,QKGP,≤ 0.25
24,KATS,≤ 0.25
25,VWKD,≤ 0.25
26,EYES,≤ 0.25

row,Variant,enrichment ratio
1,WMAE,≤ 0.25
2,IFPW,≤ 0.25
3,VELW,≤ 0.25
4,FDEV,≤ 0.25
5,YPGG,≤ 0.25
6,QVMT,≤ 0.25
7,MHVP,≤ 0.25
8,ASEW,≤ 0.25
9,GAFY,≤ 0.25
10,YWQR,≤ 0.25
11,LYSC,≤ 0.25
12,SMTK,0.437
13,WVSV,≤ 0.25
14,IDFI,≤ 0.25
15,AHYA,≤ 0.25
16,LAFE,≤ 0.25
17,PMLM,≤ 0.25
18,PHWW,≤ 0.25
19,HWIK,≤ 0.25
20,EDAY,≤ 0.25
21,RPQG,≤ 0.25
22,RLRL,≤ 0.25
23,IVFY,≤ 0.25
24,VKVG,≤ 0.25
25,RECF,≤ 0.25
26,IIMV,≤ 0.25

row,Variant,enrichment ratio
1,IAKK,≤ 0.25
2,EVNH,≤ 0.25
3,YMRY,≤ 0.25
4,AQTP,≤ 0.25
5,TKWS,≤ 0.25
6,VFMS,≤ 0.25
7,MRRP,≤ 0.25
8,SQFP,≤ 0.25
9,VWYD,≤ 0.25
10,PYHC,≤ 0.25
11,FCLF,2.32
12,EFVY,≤ 0.25
13,PMMI,≤ 0.25
14,ETQA,≤ 0.25
15,YRGI,≤ 0.25
16,YHQR,≤ 0.25
17,KMGV,≤ 0.25
18,PGQY,≤ 0.25
19,IDHN,≤ 0.25
20,DLEP,≤ 0.25
21,FYSV,≤ 0.25
22,KTYL,≤ 0.25
23,GRIQ,≤ 0.25
24,ECKG,≤ 0.25
25,SRHI,≤ 0.25
26,LVYP,≤ 0.25

row,Variant,enrichment ratio
1,PKCL,≤ 0.25
2,MFNH,≤ 0.25
3,QLHQ,≤ 0.25
4,NAFG,≤ 0.25
5,IVLS,≤ 0.25
6,YVIR,≤ 0.25
7,PLRR,≤ 0.25
8,GIRK,≤ 0.25
9,YREC,≤ 0.25
10,HPVR,≤ 0.25
11,QVHG,≤ 0.25
12,REKA,≤ 0.25
13,YELY,0.302
14,NCPH,≤ 0.25
15,FCWV,≤ 0.25
16,AFTT,≤ 0.25
17,RYKA,≤ 0.25
18,SNKG,≤ 0.25
19,PRLF,≤ 0.25
20,TWGT,≤ 0.25
21,QATS,≤ 0.25
22,VKSG,≤ 0.25
23,MLIM,≤ 0.25
24,HHKD,≤ 0.25
25,GYDK,≤ 0.25
26,RDAH,≤ 0.25

row,Variant,enrichment ratio
1,NFNA,≤ 0.25
2,HYDS,≤ 0.25
3,HPGF,≤ 0.25
4,QMAD,≤ 0.25
5,KVDD,≤ 0.25
6,ILAM,≤ 0.25
7,GRCA,≤ 0.25
8,ITAW,≤ 0.25
9,YTQE,≤ 0.25
10,YSMV,10.7
11,MMWY,≤ 0.25
12,IDPF,≤ 0.25
13,VFTE,≤ 0.25
14,KDNH,≤ 0.25
15,EHFL,≤ 0.25
16,FMHW,≤ 0.25
17,NGHQ,≤ 0.25
18,YYQF,≤ 0.25
19,DPWD,≤ 0.25
20,FHTE,≤ 0.25
21,PMTS,≤ 0.25
22,VDIH,≤ 0.25
23,RHGQ,≤ 0.25

# — a collection of fitness landscapes (doi:10.1126/science.1257360)
